Laboratory results reported in the supplement of paper PMC4967469.
The IC50 comes from the fitted curve, where viability falls to half of the control; a fit beyond the top or the lowest dose is shown as a bound at that dose. AUC is the area under the same curve over the 256-fold range up to the top dose, as a fraction; values near 1 show little effect. An inferred top dose is not printed in the source and was worked back from the curve model.

Compound: CCn1cc(-c2ccnc3[nH]c(-c4cccc(CN(C)C)c4)cc23)c(-c2ccc(NC(=O)N(C)C)cc2)n1 [GSK1070916]
Assay: Viability of human cancer cell lines after 72 h of drug (GDSC screen)
Conditions: top dose inferred
Method: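 Human cancer cell lines in 384-well plates, medium with 10% serum, drug for 72 h over a 256-fold dose range (nine 2-fold or five 4-fold steps up to the top dose). Adherent lines were fixed and stained with the nucleic acid dye Syto60, suspension lines read with resazurin; signal relative to control wells, capped at 0 and 100%. One two-parameter sigmoid per drug and line, fitted in a mixed model over all curves with the slope shared within a line.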

Cell Line	AUC	IC50
MDA-MB-157 (breast, adherent, top dose 2.56 µM)	0.971	> 2560 nM
EW-11 (Ewing sarcoma, adherent, top dose 2.56 µM)	0.788	1500 nM
NMC-G1 (glioma, adherent, top dose 2.56 µM)	0.837	2300 nM
NCI-H69 (small cell lung carcinoma, suspension, top dose 2.56 µM)	0.866	> 2560 nM
NCI-H2141 (small cell lung carcinoma, suspension, top dose 2.56 µM)	0.915	> 2560 nM
UWB1.289 (ovary, adherent, top dose 2.56 µM)	0.96	> 2560 nM
RCC-JW (kidney, adherent, top dose 2.56 µM)	0.933	> 2560 nM
QIMR-WIL (acute myeloid leukaemia, suspension, top dose 2.56 µM)	0.377	74 nM
PSN1 (pancreas, adherent, top dose 2.56 µM)	0.88	1940 nM
CPC-N (small cell lung carcinoma, suspension, top dose 2.56 µM)	0.816	1590 nM
NCI-H23 (lung adenocarcinoma, adherent, top dose 2.56 µM)	0.988	> 2560 nM
KELLY (neuroblastoma, adherent, top dose 2.56 µM)	0.962	> 2560 nM
CAL-27 (head and neck, adherent, top dose 2.56 µM)	0.812	1400 nM
ESO51 (oesophagus, semi-adherent, top dose 2.56 µM)	0.941	> 2560 nM
KYSE-150 (oesophagus, adherent, top dose 2.56 µM)	0.972	> 2560 nM
NCI-H747 (large intestine, adherent, top dose 2.56 µM)	0.861	> 2560 nM
IMR-5 (neuroblastoma, adherent, top dose 2.56 µM)	0.092	< 10 nM
COR-L321 (lung, suspension, top dose 2.56 µM)	0.437	108 nM
KYAE-1 (oesophagus, suspension, top dose 2.56 µM)	0.915	> 2560 nM
A673 (rhabdomyosarcoma, adherent, top dose 2.56 µM)	0.912	> 2560 nM

Cell Line	AUC	IC50
EW-13 (Ewing sarcoma, suspension, top dose 2.56 µM)	0.687	571 nM
GP5d (large intestine, adherent, top dose 2.56 µM)	0.952	> 2560 nM
RL (B-cell lymphoma, suspension, top dose 2.56 µM)	0.925	> 2560 nM
NCI-H810 (large cell lung carcinoma, adherent, top dose 2.56 µM)	0.753	823 nM
D-542MG (glioma, adherent, top dose 2.56 µM)	0.98	> 2560 nM
HCC1937 (breast, adherent, top dose 2.56 µM)	0.952	> 2560 nM
NCI-H196 (small cell lung carcinoma, adherent, top dose 2.56 µM)	0.93	> 2560 nM
COR-L303 (small cell lung carcinoma, suspension, top dose 2.56 µM)	0.851	1860 nM
SJSA-1 (bone, adherent, top dose 2.56 µM)	0.951	> 2560 nM
SAS (head and neck, adherent, top dose 2.56 µM)	0.946	> 2560 nM
NCI-H2030 (lung adenocarcinoma, adherent, top dose 2.56 µM)	0.912	> 2560 nM
RS4-11 (leukaemia, suspension, top dose 2.56 µM)	0.033	< 10 nM
NCI-H1734 (lung adenocarcinoma, adherent, top dose 2.56 µM)	0.898	> 2560 nM
COLO-792 (melanoma, adherent, top dose 2.56 µM)	0.958	> 2560 nM
SK-MEL-28 (melanoma, adherent, top dose 2.56 µM)	0.989	> 2560 nM
JAR (urogenital system, adherent, top dose 2.56 µM)	0.918	> 2560 nM
SNU-175 (large intestine, suspension, top dose 2.56 µM)	0.277	39.2 nM
NCI-H2052 (mesothelioma, adherent, top dose 2.56 µM)	0.968	> 2560 nM
KG-1 (acute myeloid leukaemia, suspension, top dose 2.56 µM)	0.846	1580 nM
